Assay results: US5391540A, “Substituted pyridine compounds” (Rohm and Haas Company, priority 1993, dated 1995)
The name of at least one read-out is uncertain. Some compounds share one range, which may span the group rather than tell each member.

Assays:
Assay in all cases: Post-emergence herbicidal activity (Table C)
Type in all cases: in vivo
Cocklebur = settings: Cobu, 11.2 kg/ha, 10-14 days
Downy Brome = settings: Dobr, 11.2 kg/ha, 10-14 days
Morningglory = settings: Mogl, 11.2 kg/ha, 10-14 days
Velvetleaf = settings: Vele, 11.2 kg/ha, 10-14 days
Yellow Nutsedge = settings: Yens, 11.2 kg/ha, 10-14 days
Annual Bluegrass = settings: Anbg, 11.2 kg/ha, 10-14 days
Seedling Johnsongrass = settings: Sejg, 11.2 kg/ha, 10-14 days
Barnyardgrass = settings: Bygr, 11.2 kg/ha, 10-14 days
Indian Mustard = settings: Inmu, 11.2 kg/ha, 10-14 days
Wild Buckwheat = settings: Wibw, 11.2 kg/ha, 10-14 days

Structure (SMILES) | post-emergent herbicidal activity index (Cocklebur) | post-emergent herbicidal activity index (Downy Brome) | post-emergent herbicidal activity index (Morningglory) | post-emergent herbicidal activity index (Velvetleaf) | post-emergent herbicidal activity index (Yellow Nutsedge) | post-emergent herbicidal activity index (Annual Bluegrass) | post-emergent herbicidal activity index (Seedling Johnsongrass) | post-emergent herbicidal activity index (Barnyardgrass) | post-emergent herbicidal activity index (Indian Mustard) | post-emergent herbicidal activity index (Wild Buckwheat)
COc1nc(C(F)(F)F)c(C(=O)n2cccn2)c(CC(C)C)c1C(=O)SC [Compound 131, 3-pyridinecarbothioic acid, 2-methoxy-4-(2-methylpropyl)-5-(1H-pyrazo1-1-ylcarbonyl)-6-(trifluoromethyl)-, S-methyl ester] | 0 (0-24% inhibition) | 0 (0-24% inhibition) | 0 (0-24% inhibition) | 0 (0-24% inhibition) | 0 (0-24% inhibition) | 0 (0-24% inhibition) | 0 (0-24% inhibition) | 0 (0-24% inhibition) | 0 (0-24% inhibition) | 0 (0-24% inhibition)
COC(=O)c1c(OC(Cl)(Cl)Cl)nc(C(F)(F)F)c(C(=O)OC)c1CC(C)C [Compound 96, 3,5-pyridinedicarboxylic acid, 4-(2-methylpropyl)-2-(trichloromethoxy)-6-(trifluoromethyl)-, dimethyl ester] | 0 (0-24% inhibition) | 0 (0-24% inhibition) | 1 (25-49% inhibition) | 0 (0-24% inhibition) | 0 (0-24% inhibition) | 0 (0-24% inhibition) | 0 (0-24% inhibition) | 0 (0-24% inhibition) | 2 (50-74% inhibition) | 1 (25-49% inhibition)
COC(=O)c1c(OC)nc(C(F)(F)F)c(C2OCCO2)c1CC1CC1 [Compound 118, 3-pyridinecarboxylic acid, 4-(cyclopropylmethyl)-5-(1,3-dioxolan-2-yl)-2-methoxy-6-(trifluoromethyl)-, methyl ester] | 0 (0-24% inhibition) | 0 (0-24% inhibition) | 0 (0-24% inhibition) | 0 (0-24% inhibition) | 0 (0-24% inhibition) | 0 (0-24% inhibition) | 0 (0-24% inhibition) | 1 (25-49% inhibition) | 1 (25-49% inhibition) | 1 (25-49% inhibition)
COC(=O)c1c(OC)nc(C(F)(F)F)c(C(=O)Cl)c1C1CCC1 [Compound 138, 3-pyridinecarboxylic acid, 5-(chlorocarbonyl)-4-cyclobuty1-2-methoxy-6-(trifluoromethyl)-, methyl ester] | 1 (25-49% inhibition) | 0 (0-24% inhibition) | 1 (25-49% inhibition) | 2 (50-74% inhibition) | 0 (0-24% inhibition) | 0 (0-24% inhibition) | 0 (0-24% inhibition) | 0 (0-24% inhibition) | 2 (50-74% inhibition) | 2 (50-74% inhibition)
COC(=O)c1c(OC)nc(C(F)(F)F)c(C2OCC(=O)O2)c1CC(C)C (stereo not drawn) [Compound 123, 3-pyridinecarboxylic acid, 2-methoxy-4-(2-methylpropyl)-5-(4-oxo-1,3-dioxolan-2-yl)-6-(trifluoromethyl)-, methyl ester] | 0 (0-24% inhibition) | 0 (0-24% inhibition) | 0 (0-24% inhibition) | 0 (0-24% inhibition) | 0 (0-24% inhibition) | 0 (0-24% inhibition) | 0 (0-24% inhibition) | 0 (0-24% inhibition) | 0 (0-24% inhibition) | 0 (0-24% inhibition)
COc1nc(C(F)(F)F)c(C2OCCCO2)c(CC(C)C)c1C(=O)SC [Compound 136, 3-pyridinecarbothioic acid, 5-(1,3-dioxan-2-yl)-2-methoxy-4-(2-methylpropyl)-6-(trifluoromethyl)-, S-methyl ester] | 0 (0-24% inhibition) | 0 (0-24% inhibition) | 0 (0-24% inhibition) | 0 (0-24% inhibition) | 0 (0-24% inhibition) | 0 (0-24% inhibition) | 0 (0-24% inhibition) | 0 (0-24% inhibition) | 0 (0-24% inhibition) | 0 (0-24% inhibition)
COC(=O)c1c(OC)nc(C(F)(F)F)c(-c2ncco2)c1CC(C)C [Compound 130, 3-pyridinecarboxylic acid, 2-methoxy-4-(2-methylpropyl)-5-(2-oxazolyl)-6-(trifluoromethyl)-, methyl ester] | 1 (25-49% inhibition) | 0 (0-24% inhibition) | 1 (25-49% inhibition) | 0 (0-24% inhibition) | 0 (0-24% inhibition) | 1 (25-49% inhibition) | 0 (0-24% inhibition) | 2 (50-74% inhibition) | 2 (50-74% inhibition) | 1 (25-49% inhibition)
COC(=O)c1c(OC)nc(C(F)(F)F)c(-c2cnco2)c1CC(C)C [Compound 114, 3-pyridinecarboxylic acid, 2-methoxy-4-(2-methylpropyl)-5-(5-oxazolyl)-6-(trifluoromethyl)-, methyl ester] | 0 (0-24% inhibition) | 0 (0-24% inhibition) | 2 (50-74% inhibition) | 2 (50-74% inhibition) | 0 (0-24% inhibition) | 0 (0-24% inhibition) | 2 (50-74% inhibition) | 2 (50-74% inhibition) | 1 (25-49% inhibition) | 2 (50-74% inhibition)
COC(=O)c1c(OC)nc(C(F)(F)F)c(C=NCCO)c1CC(C)C [Compound 128] | 0 (0-24% inhibition) | 0 (0-24% inhibition) | 1 (25-49% inhibition) | 0 (0-24% inhibition) | 0 (0-24% inhibition) | 0 (0-24% inhibition) | 0 (0-24% inhibition) | 0 (0-24% inhibition) | 0 (0-24% inhibition) | 0 (0-24% inhibition)
COC(=O)c1c(OC)nc(C(F)(F)F)c(C2=NCCCO2)c1CC(C)C [Compound 99] | 0 (0-24% inhibition) | 0 (0-24% inhibition) | 2 (50-74% inhibition) | 2 (50-74% inhibition) | 0 (0-24% inhibition) | 0 (0-24% inhibition) | 2 (50-74% inhibition) | 1 (25-49% inhibition) | 1 (25-49% inhibition) | 2 (50-74% inhibition)
COC(=O)c1c(OC)nc(C(F)(F)F)c(C(=O)n2cncn2)c1C1CCC1 [Compound 141] | 1 (25-49% inhibition) | 0 (0-24% inhibition) | 1 (25-49% inhibition) | 2 (50-74% inhibition) | 0 (0-24% inhibition) | 0 (0-24% inhibition) | 2 (50-74% inhibition) | 0 (0-24% inhibition) | 2 (50-74% inhibition) | 2 (50-74% inhibition)
COc1nc(C(F)(F)F)c(C(=O)Cl)c(CC(C)C)c1C(=O)SC [Compound 133, 3-pyridinecarbothioic acid, 5-(chlorocarbonyl)-2-methoxy-4-(2-methylpropyl)-6-(trifluoromethyl)-, S-methyl ester] | 0 (0-24% inhibition) | 0 (0-24% inhibition) | 0 (0-24% inhibition) | 0 (0-24% inhibition) | 0 (0-24% inhibition) | 0 (0-24% inhibition) | 0 (0-24% inhibition) | 0 (0-24% inhibition) | 0 (0-24% inhibition) | 0 (0-24% inhibition)
